The campaign covered roughly 420,000 compounds. About 64,000 (15%) were called active. Inconclusive means that the source gave no clear call. Such entries were picked first, then a sample of the others. The call rests on the fitted dose curve; in most records, active means well fitted inhibition curve with a large enough effect; inconclusive means small, poorly fitted or top-dose-only effect; inactive means flat fitted curve, though single readings scatter. Potencies of inconclusive entries are left out as doubtful fits.
Test: qHTS for Inhibitors of human tyrosyl-DNA phosphodiesterase 1 (TDP1): qHTS in cells in absence of CPT; further: nearly all actives have a fitted effect of over 55% in size
Details: DT40 Tdp1-/- hTDP1 cells, no CPT, ATP luminescence, 48 h; activity change, negative = growth inhibition: at 46.2 µM (top of the series) unless noted
Procedure, shortened: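 Compound effects on proliferation are scored in DT40 Tdp1-/-;hTDP1 cells in the absence of CPT. ATP levels (CellTiter-Glo luminescence) are recorded after a ≥48 hr, 37 °C incubation.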
On the % scale 0 is the no-effect control and ±100 the full control effect; potency means the concentration at half of the fitted maximal effect; tags describe the fitted curve by direction and shape.

SMILES | Potency | activity change, negative = growth inhibition
CCSc1ncc(Cl)c(C(=O)Nc2nc3ccc(OC)cc3s2)n1 | inactive | 
Cc1c(NC(=O)COC(=O)COc2ccc(Nc3ccccc3)cc2)c(=O)n(-c2ccccc2)n1C | inconclusive [inhibitor, single point] | 
Cc1ccc(S(=O)(=O)NCCC(=O)N2CCCCCCC2)cc1C | inactive | 
Cc1ccc(-n2nc(C)c3c2NC2=C(C(=O)CC(C)(C)C2)C3c2ccccc2OCC(=O)O)cc1 (stereo not drawn) | inconclusive [inhibitor, partial curve] | 
O=C(Nc1cccc(Cl)c1)OCCN1CCN(Cc2ccccc2)CCC1=O | active: 18.4 µM | 
Cc1ccccc1NC(=O)Cn1c(O)c(N=NC(=O)c2ccccc2O)c2ccccc21 | active: 5.8 µM | 
CC(C)(C)NC[C@@H](O)COc1nsnc1N1CCOCC1 | inactive | 
Cc1cc(=O)[nH]c(N/N=C2/CCCC/C2=C\c2ccccc2)n1 | inconclusive [inhibitor, single point] | 
CCC(CO)N=C1CC(C)(C)CC(=O)/C1=C(/O)CCCN1C(=O)c2ccccc2C1=O (stereo not drawn) | inactive | 
CCOC(=O)C1CCCN(Cc2cc(=O)oc3cc(C)c(C)cc23)C1 (stereo not drawn) | inconclusive [inhibitor, single point] | 
CCc1nonc1NC(=O)c1oc2ccccc2c1C | inconclusive [inhibitor, single point] | 
CCc1ccc(C(=O)NCc2cccs2)s1 |  | inconclusive: -31.1% [inhibitor]
CNC(=O)/C(C#N)=C/c1c(N2CCCCCC2)nc2ccccn2c1=O | inactive | 
O=[N+]([O-])c1cc(C(F)(F)F)cc([N+](=O)[O-])c1NN=C1CCCCC1 | active: 23.1 µM | 
COc1ccc(C(O)c2nc(-c3ccc(OC)nc3)cs2)cc1 (stereo not drawn) | inconclusive [inhibitor, single point] | 
Cc1cc(C)c(NC(=O)COc2nc3ccccc3nc2C)c(C)c1 | inconclusive [inhibitor, single point] | 
COc1ccccc1CNC(=O)C1CCN(S(=O)(=O)c2ccc3c(c2)CC(C)N3C(C)=O)CC1 (stereo not drawn) | inactive | 
O=C(NC1CC(=O)N(c2ccc(F)cc2)C1)C(=O)c1c[nH]c2ccccc12 (stereo not drawn) | inactive | 
CC(OC(=O)c1ccco1)C(=O)Nc1ccc(C(F)(F)F)cc1 (stereo not drawn) | active: 25.9 µM | 
CN1CCN(S(=O)(=O)c2ccc(-c3ccc(Cl)cc3)cc2)CC1 | inconclusive [inhibitor, single point] | 
COc1cc(OC)cc(C(=O)NCC(=O)OCC(=O)/C=C2/N(C)c3ccccc3C2(C)C)c1 | active: 16.4 µM | 
Cc1oc(-c2cccc(NC(=O)c3ccccn3)c2)nc1CNC(=O)c1cc(F)c(F)cc1F | inactive | 
Cc1c(C(=O)N2CCN(S(=O)(=O)c3ccccc3)CC2)oc2ccc(Br)cc12 | inconclusive [inhibitor, single point] | 
C=CCn1c(CSCc2ccc(Cl)cc2Cl)nnc1SCC(=O)Nc1ccc(C(=O)O)cc1 | inactive | 

SMILES | Potency | activity change, negative = growth inhibition
CCn1c(SCC(=O)N(C)CC(=O)Nc2cccc(OC)c2)nnc1-c1ccco1 | inactive | 
COC(=O)Nc1ccc(S(=O)(=O)N2CCCC(C(=O)N3CCCCC3)C2)cc1 (stereo not drawn) | inconclusive [inhibitor, partial curve, poor fit] | 
CCCn1c(=S)[nH]c2cc(C(=O)N3CCN(C4CCCCC4)CC3)ccc2c1=O | inconclusive [inhibitor, single point] | 
CCOC(=O)[C@]12CCC=C1N(Cc1ccc3c(c1)OCO3)C(=O)[C@H](CC(=O)NCc1cccs1)C2 | inconclusive [inhibitor, single point] | 
COc1ccccc1CNC(=O)CCN1C(=O)COc2ccc(C)cc21 | inactive | 
COc1ccc(S(=O)(=O)N(C)C)cc1NCC(=O)Nc1ccc(Br)cc1F | active: 29.1 µM | 
CCOC(=O)N1CCC(NC(=O)c2ccc3c(c2)N(Cc2ccc(F)cc2)C(=O)c2ccccc2S3(=O)=O)CC1 | inconclusive [inhibitor, partial curve, poor fit] | 
O=C(NC1CCCCC1)c1c(O)nc2sccn2c1=O | inconclusive [inhibitor, single point] | 
Cc1cc(C(=O)NNC(=O)c2ccc(F)cc2)c(C)s1 | inactive | 
CC1C/C(=C/c2ccncc2)C(=O)/C(=C/c2ccncc2)C1 (stereo not drawn) | active: 0.58 µM | 
CCCCc1ccc(NC(=O)CSC2=NN3CCCC(=O)N=C3S2)cc1 | inconclusive [inhibitor, single point] | 
COc1cc(/C=C(/C#N)c2ccc(F)cc2)ccc1Oc1ccc([N+](=O)[O-])cn1 | active: 3.66 µM | 
O=C(CNC(=O)c1ccccc1Cl)c1ccccc1 | inconclusive [inhibitor, single point] | 
CC1NC(=O)c2cccnc2-n2c1nc1cc(F)ccc1c2=O (stereo not drawn) |  | inconclusive: -26.5% [inhibitor]
COc1ccc(C(CNC(=O)c2cccc(S(=O)(=O)Nc3ccc(C)cc3)c2)N2CCCCC2)cc1 (stereo not drawn) | inconclusive [inhibitor, single point] | 
COc1ccc(NC(=S)c2ccncc2)cc1 | inconclusive [inhibitor, partial curve] | 
CC1(C)CC(=O)C=C(c2ccc(-c3cnc4ccccc4c3)cc2)C1=O | active: 23.1 µM | 
O=S(=O)(Nc1ccc(N=Nc2ccc(O)c3ccccc23)cc1)c1ccccc1 | inconclusive [inhibitor, single point] | 
O=S(=O)(c1cccc(-c2nnc(SCc3ccc(Cl)cc3)o2)c1)N1CCCCC1 | active: 23.1 µM | 
O=C(COc1cccc2ccccc12)N/N=C/c1ccncc1 | inactive | 
CC(=O)c1ccc(NC(=O)CCNS(=O)(=O)c2ccccc2F)cc1 | inactive | 
N#Cc1nc(Cc2cccc3ccccc23)oc1N1CCCCC1 | inconclusive [inhibitor, single point] | 
COC(=O)Cc1[nH]n(-c2nc3ccccc3s2)c(=O)c1C(C)=O | active: 10.3 µM | 
COCCN1CC(CNC(=O)c2cc(COc3ccccc3SC)on2)CC1=O (stereo not drawn) |  | inconclusive: -30.8% [inhibitor]

Reference: PubChem BioAssay AID686978 (National Center for Advancing Translational Sciences (NCATS), 2013)
